Measured values taken from the supplement of paper PMC9588766.
Where a name gives a salt, the structure may show the parent alone. ± gives the standard deviation of the averaged measurements. Over roughly 2,000 compounds, “cell viability relative to DMSO control (compound alone)” has its median near 0.98; the lowest 2% begin near 0.23. The list shows a part of the results.

system: PDC-DUC18828; assay: cell viability relative to DMSO control (compound alone) (fraction); PDC-DUC18828 is a patient-derived cholangiocarcinoma cell line; higher = less growth inhibition; settings: 1 µM; 72 h
Procedure: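 Selleck Bioactive library screen in the patient-derived FGFR2-G3BP2 fusion-positive ICC cell line PDC-DUC18828 (500 cells/well). Each compound was tested at 1 uM alone, in triplicate, for 72 h. Viability was read by CellTiter-Glo and normalised to plate DMSO controls.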

SMILES | cell viability
CCCc1ncc(C[n+]2ccccc2C)c(N)n1 [Amprolium HCl] | 1.03 ± 0.017
OC[C@H]1OC(O)[C@H](O)[C@@H](O)[C@@H]1O (stereo partly drawn) [Dextrose] | 1.07 ± 0.098
O=C1NC(=O)C(c2ccccc2[N+](=O)[O-])=C1Nc1ccc(O)c(Cl)c1 | 1.03 ± 0.048
CC(C(=O)O)c1cccc(Oc2ccccc2)c1 (stereo not drawn) [Fenoprofen Calcium] | 0.987 ± 0.073
CC(C(=O)O)c1cccc(Oc2ccccc2)c1 (stereo not drawn) [Fenoprofen calcium hydrate] | 1.01 ± 0.047
COCCOc1nc(-c2ccc(Cl)c(Cl)c2)n(-c2ccc(NC(=O)CCl)cc2)n1 [MI-2 (MALT1 inhibitor)] | 0.695 ± 0.067
OC[C@@H](O)[C@@H](O)[C@H](O)[C@H](O)CO [D-Mannitol] | 0.984 ± 0.035
C[C@H](NCc1ccc(OCc2cccc(F)c2)cc1)C(N)=O [Safinamide Mesylate] | 1.06 ± 0.045
CC(=O)OCC(=O)NCCCOc1cccc(CN2CCCCC2)c1 [Roxatidine Acetate HCl] | 0.918 ± 0.017
CCn1cc(C(=O)O)c(=O)c2cc(F)c(N3CCNCC3)nc21 [Enoxacin] | 0.951 ± 0.028
C=C(C)[C@@H]1CC[C@]2(C(=O)O)CC[C@]3(C)[C@H](CC[C@@H]4[C@@]5(C)CC[C@H](O)C(C)(C)[C@@H]5CC[C@]43C)[C@@H]12 [Betulinic acid] | 0.956 ± 0.026
C1N2CN3CN1CN(C2)C3 [Methenamine] | 1.01 ± 0.056
O=C(O)C1=C[C@@H](O)[C@@H](O)[C@H](O)C1 [Shikimic Acid] | 1.02 ± 0.063
CC(C)OC(=O)C(C(=O)OC(C)C)=C1SC=CS1 [Malotilate] | 1.02 ± 0.035
CC[C@]12C=CCN3CC[C@@]4(c5cc([C@@]6(C(=O)OC)C[C@@H]7C[C@@H](C(C)(F)F)CN(Cc8c6[nH]c6ccccc86)C7)c(OC)cc5N(C)[C@H]4[C@@](O)(C(=O)OC)[C@@H]1OC(C)=O)[C@@H]32 [Vinflunine Tartrate] | 0.287 ± 0.02
c1ccc2c(c1)CCCC2C1=NCCN1 (stereo not drawn) [Tetrahydrozoline HCl] | 0.986 ± 0.066
O=C(COc1cccc2c(=O)[nH]ccc12)c1ccccc1 | 1.05 ± 0.033
CCNC(=O)[C@H]1O[C@@H](n2cnc3c(N)nc(NCCc4ccc(CCC(=O)O)cc4)nc32)[C@H](O)[C@@H]1O | 1.022 ± 0.0044
CS(=O)(=O)c1ccc([C@@H](O)[C@@H](CF)NC(=O)C(Cl)Cl)cc1 [Florfenicol] | 0.935 ± 0.073
CC(C)c1nc(N(C)S(C)(=O)=O)nc(-c2ccc(F)cc2)c1/C=C/[C@@H](O)C[C@@H](O)CC(=O)O [Rosuvastatin Calcium] | 0.948 ± 0.035
CCCCCOc1ccc(-c2ccc(-c3ccc(C(=O)N[C@H]4C[C@@H](O)[C@@H](O)NC(=O)[C@@H]5[C@@H](O)[C@@H](C)CN5C(=O)[C@H]([C@@H](C)O)NC(=O)[C@H]([C@H](O)[C@@H](O)c5ccc(O)cc5)NC(=O)[C@@H]5C[C@@H](O)CN5C(=O)[C@H]([C@@H](C)O)NC4=O)cc3)cc2)cc1 | 0.975 ± 0.036
COC(=O)[C@H](c1ccccc1Cl)N1CCc2sccc2C1 [Clopidogrel] | 0.9834 ± 0.0064
COCCCC/C(=N\OCCN)c1ccc(C(F)(F)F)cc1 [Fluvoxamine maleate] | 0.982 ± 0.025
NC(=O)N1CCC(CC(=O)N2CCC([C@H]3c4ncc(Br)cc4CCc4cc(Cl)cc(Br)c43)CC2)CC1 [Lonafarnib] | 0.737 ± 0.057
C[C@H](N[C@@H](CCc1ccccc1)C(=O)O)C(=O)N1CCC[C@H]1C(=O)O [Enalaprilat Dihydrate] | 1.03 ± 0.035

SMILES | cell viability
CN(C)[C@@H]1C(O)=C(C(N)=O)C(=O)[C@@]2(O)C(O)=C3C(=O)c4c(O)cccc4[C@@](C)(O)[C@H]3C[C@@H]12 [Tetracycline HCl] | 0.904 ± 0.031
O=C(Nc1cc(C(F)(F)F)cc(C(F)(F)F)c1)c1cc(Cl)ccc1O | 0.195 ± 0.015
Nc1ccc2ncnc(NCCc3ccc(Oc4ccccc4)cc3)c2c1 | 0.865 ± 0.04
Oc1c(Br)cc(Br)c2cccnc12 [Broxyquinoline] | 1.09 ± 0.068
COc1ccc(-c2coc3cc(O)ccc3c2=O)cc1 [Formononetin] | 0.982 ± 0.069
CN1CCN(S(=O)(=O)c2ccc(-c3cnc(N)c(C(=O)Nc4cccnc4)n3)cc2)CC1 | 1.11 ± 0.069
CNc1nc(-c2ccc3c(N)n[nH]c3c2)cc(N2C[C@@H](C(=O)NC3CCCCC3)CC[C@H]2C)n1 | 0.796 ± 0.046
CS(=O)(=O)c1ccc(C(=O)Nc2ccc(Cl)c(-c3ccccn3)c2)c(Cl)c1 [Vismodegib (GDC-0449)] | 0.994 ± 0.056
CC(C)C[C@H](NC(=O)[C@H](Cc1ccccc1)NC(=O)c1cnccn1)B(O)O [Bortezomib (PS-341)] | 0.022 ± 0.0038
Cc1ccc2c(c1)C(=O)C1(O)CCN(c3ccccc3)C1=N2 (single isomer, unassigned; (-)) [(-)-Blebbistatin] | 1 ± 0.035
COc1ccc(CC(C)NCC(O)c2ccc(O)c(NC=O)c2)cc1 (stereo not drawn) [Formoterol Hemifumarate] | 0.957 ± 0.048
O=C(COc1ccc(C(=O)c2ccccc2)cc1)NC1CCN(Cc2ccccc2)CC1 [AdipoRon] | 1.02 ± 0.084
CC1(C)CCC(c2ccc(Cl)cc2)=C(CN2CCN(c3ccc(C(=O)NS(=O)(=O)c4ccc(N[C@H](CCN5CCOCC5)CSc5ccccc5)c(S(=O)(=O)C(F)(F)F)c4)cc3)CC2)C1 [ABT-263 (Navitoclax)] | 0.782 ± 0.04
Nc1nc(F)nc2c1ncn2[C@@H]1O[C@H](COP(=O)(O)O)[C@@H](O)[C@@H]1O [Fludarabine Phosphate] | 0.929 ± 0.022
O=C(NOCC1CC1)c1ccc(F)c(F)c1Nc1ccc(I)cc1Cl | 0.929 ± 0.038
CCOC(=O)N1CCC(=C2c3ccc(Cl)cc3CCc3cccnc32)CC1 [Loratadine] | 1.06 ± 0.027
CC[C@H]1OC(=O)[C@H](C)[C@@H](O[C@H]2C[C@@](C)(OC)[C@@H](O)[C@H](C)O2)[C@H](C)[C@@H](O[C@@H]2O[C@H](C)C[C@H](N(C)C)[C@H]2O)[C@](C)(O)C[C@@H](C)C(=O)[C@H](C)[C@@H](O)[C@]1(C)O [Erythromycin] | 0.973 ± 0.054
c1ccc(CC2=NCCN2)cc1 [Tolazoline HCl] | 0.99 ± 0.016
CC(C)(Oc1ccc(CCNC(=O)c2ccc(Cl)cc2)cc1)C(=O)O [Bezafibrate] | 1.04 ± 0.027
O=C(O)CCc1nc(-c2ccccc2)c(-c2ccccc2)o1 [Oxaprozin] | 1.03 ± 0.055
O=C(O)CCCc1c[nH]c2ccccc12 [3-Indolebutyric acid (IBA)] | 0.998 ± 0.035
O=C(c1cc(Cc2n[nH]c(=O)c3ccccc23)ccc1F)N1CCN(C(=O)C2CC2)CC1 | 1.01 ± 0.068
O=C1c2ccccc2C(=O)C1c1ccccc1 [Phenindione] | 0.977 ± 0.061
Cc1ccc(N(CC2=NCCN2)c2cccc(O)c2)cc1 [Phentolamine Mesylate] | 1.08 ± 0.028
CC(C)Nc1cc(-c2c[nH]c(C(=O)N[C@H](CO)c3cccc(Cl)c3)c2)c(Cl)cn1 | 0.821 ± 0.028

SMILES | cell viability
CNC[C@@H](O)c1ccc(O)c(O)c1 [L-Adrenaline] | 1.04 ± 0.019
CCc1ccc(CCOc2ccc(CC3SC(=O)NC3=O)cc2)nc1 (stereo not drawn) [Pioglitazone] | 1.04 ± 0.054
CCc1ccc(CCOc2ccc(CC3SC(=O)NC3=O)cc2)nc1 (stereo not drawn) [Pioglitazone HCl] | 1.09 ± 0.065
CO[C@H]1/C=C/O[C@@]2(C)Oc3c(C)c(O)c4c(O)c(c(/C=N/N5CCN(C)CC5)c(O)c4c3C2=O)NC(=O)/C(C)=C\C=C\[C@H](C)[C@H](O)[C@@H](C)[C@@H](O)[C@@H](C)[C@H](OC(C)=O)[C@@H]1C [Rifampin] | 1.08 ± 0.027
Cc1c(Cl)cccc1Nc1ccccc1C(=O)O [Tolfenamic Acid] | 0.983 ± 0.058
CCCSc1ccc2[nH]c(NC(=O)OC)nc2c1 [Albendazole] | 0.517 ± 0.062
COc1ccc(-c2ccc3c(N4CCOC[C@@H]4C)nc(N4CCOC[C@@H]4C)nc3n2)cc1CO | 0.251 ± 0.005
CC(C)C[C@H](NP(=O)(O)O[C@@H]1O[C@@H](C)[C@H](O)[C@@H](O)[C@H]1O)C(=O)N[C@@H](Cc1c[nH]c2ccccc12)C(=O)O [Phosphoramidon Disodium Salt] | 1.03 ± 0.035
COc1ccc2c(c1)CCC1C2CCC2(C)C(NCCCCCCN3C(=O)C=CC3=O)CCC12 (stereo not drawn) | 0.867 ± 0.11
COc1nccc(-c2c(-c3ccc(F)cc3)ncn2C2CCC(O)CC2)n1 (stereo not drawn) | 1 ± 0.038
Cc1c(C(=O)Nc2ccc(Oc3ccnc4[nH]cc(-c5ccccc5)c34)c(F)c2)c(=O)n(-c2ccc(F)cc2)n1C | 0.795 ± 0.012
CN[C@@H](C)C(=O)N[C@H](C(=O)N1CCC[C@H]1c1nc(C(=O)c2ccc(F)cc2)cs1)C1CCCCC1 | 0.99 ± 0.033
COc1c(C)c(C(=O)c2ccc(N)c(C(=O)O)c2)n2ccccc12 | 0.981 ± 0.029
CC(=O)Oc1ccccc1C(=O)Nc1ncc([N+](=O)[O-])s1 [Nitazoxanide] | 1.04 ± 0.035
NC(=O)c1ccc(N(C(N)=O)c2c(F)cccc2F)nc1-c1ccc(F)cc1F | 0.831 ± 0.019
CCCc1cc(C)[nH]c(=O)c1CNC(=O)c1cc(-c2ccc(N3CCN(C(C)C)CC3)nc2)cc2c1cnn2C(C)C | 0.93 ± 0.011
COc1ccc([C@@H]2CC(=O)c3c(O)cc(O)cc3O2)cc1O [Hesperetin] | 1.01 ± 0.073
Nc1c(CC(=O)O)cccc1C(=O)c1ccccc1 [Amfenac Sodium Monohydrate] | 0.942 ± 0.021
CC(C)(C)C(=O)Nc1ccc2c(c1)C(=O)C(=O)c1ccccc1-2 | 1.07 ± 0.024
O=C(Nc1cccc(Cl)c1)c1ccccn1 | 0.954 ± 0.051
N#Cc1ccc(C(c2ccc(C#N)cc2)n2cncn2)cc1 [Letrozole] | 0.954 ± 0.055
Clc1ccc(CCC(Cn2ccnc2)Sc2c(Cl)cccc2Cl)cc1 (stereo not drawn) [Butoconazole nitrate] | 0.915 ± 0.061
C[C@@]1(C(=O)Nc2ccc(F)nc2)CCCN1c1nc(Nc2cc(C3CC3)n[nH]2)c2cccn2n1 | 0.734 ± 0.019
